Experimental data from PMC10726135.
Some of the results follow. At the low end of the ranking the order means little. Measured with an extract: partners may take part in the binding.

The sequences below were run against T1, HNF4alpha2 (COS-7 nuclear extract) (UniProt P41235) (assay: protein-binding microarray). Conditions: COS-7 nuclear extract on double-stranded Agilent 4x180k PBM; binding buffer, salt, pH and temperature not given; high values mean tight binding; double strand, one strand shown; sequences stand for … in …GCCTAGGGAGATTAGAGTATCGGTCGA.
T1 sequence: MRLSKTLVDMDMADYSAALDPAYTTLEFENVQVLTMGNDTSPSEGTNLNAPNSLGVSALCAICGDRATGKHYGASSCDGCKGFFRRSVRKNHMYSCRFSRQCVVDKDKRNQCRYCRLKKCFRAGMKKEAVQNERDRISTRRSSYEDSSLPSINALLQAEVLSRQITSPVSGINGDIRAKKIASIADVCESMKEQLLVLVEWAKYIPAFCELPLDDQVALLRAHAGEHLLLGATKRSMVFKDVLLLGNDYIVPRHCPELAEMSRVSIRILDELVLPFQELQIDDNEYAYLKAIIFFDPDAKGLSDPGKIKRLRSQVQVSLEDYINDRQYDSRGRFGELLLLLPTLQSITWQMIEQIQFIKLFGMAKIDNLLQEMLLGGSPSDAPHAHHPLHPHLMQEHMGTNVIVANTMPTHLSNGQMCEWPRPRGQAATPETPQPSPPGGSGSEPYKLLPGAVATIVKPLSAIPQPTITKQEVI

Row | Sequence | binding signal (log2 normalized intensity)
1 | GCGTATTTCAACCTTTGATCTATAACCACG | 4.84
2 | AGGTCCAAACTTCTCCACTCTTCATAATTA | 0.806
3 | TCCAGGCTGCACAGTGGGGAGGGCAGGGTC | 1.31
4 | GGAAGAGAAGACCAAACAACCAGGGAGATG | -1.11
5 | AACAAACAGTACATTCTGGAATGATACGCC | -1.23
6 | ATCGAAGTCTGGGAAGCTGTGTGAAGTGAC | 0.601
7 | CCAAAGAAGAAAACAATGACCTCTGCACCC | 5.17
8 | ATAACCATCAAATCCTCGGAAGACGCACCT | -1.1
9 | CGAGATCAAGGGACAGAGATAACTGGGGGC | -1.25
10 | CTGCCTGTCTCACCTCGCTATCACCCCGAT | 2.84
11 | TCTGTTGGTGGCACAGGGAATGGCTCGTAT | 0.887
12 | TGTGATGTTTGTAAACTGTCATGGTGCTGG | 1.66
13 | GTGTTGTGCTGACCTCCTGTCTCATCCTGT | 1.81
14 | ACGATCAGCCAGCAGGGGGCGCAGAAGGGA | -1.06
15 | TTCCAAAGTTCAACCTCATTATCTTCAGTC | 1.7
16 | GTGAGGCATCTGGACCATTGCTGACCTTGC | 3.01
17 | AGGTGTCAGGGGTCAATGTGCACATTCGAA | 4.3
18 | ATGTGGGGAAACTGGACTGTAATTTGTGGT | 1.43
19 | GTCTGCCCTCCATGTAACCCCTTTTCAATT | 3.4
20 | TAAAGTCTGCTATCTAAAAGCTTATCTGCA | -1.11

Row | Sequence | binding signal (log2 normalized intensity)
21 | ATGTTTTCACCAAGAGGGAAAAGATGGTCT | 0.691
22 | AACAAATAAATAAGAAGCCTTATCAGTATC | -1.34
23 | CGGTGGGACTAAATTCTGCGGCGGAAGGAC | -0.376
24 | TTGACTGAGACTGCCTCAAACAGCTTCGCC | -1.14
25 | AACAGGTCCTGCTGGTTTGCCATTTGGAGA | 0.965
26 | GTATGAGGGTGAAGTTTGGCAATTACCCAA | -0.771
27 | TTGCCTAAAGGGGATTTTCTCAGCTCTCCT | -1.06
28 | ACGGTGGGCACCTCATACTATACCTGATAG | -1.04
29 | GGATCAAAGGAGCTGGGCCTGTGCTGGGGA | -1.09
30 | CTGAGCCCTTATCTTTTTAGCAACTGGTAT | 1.73
31 | AAAGAAGAAGTGAAAAGTCGTTTTCAGTGT | 1.19
32 | CAGTCCTCTGCTTATCTGGCCTGCTGGGAA | 0.246
33 | CCTTTGGCATTGTGTTACGTCTGGTTTCTT | 1.95
34 | TTACGTAAGTGAAAGTACACAGTGCCTGCT | -1.17
35 | TATCATCCCTATCACTCAAGAAATGGCAGT | 0.313
36 | CTTACCCCTTTGCTGATTACCTCAACTCCC | 1.23
37 | AGTTATCTAAGACCCATCCCTCAGGGTCCA | 3.12
38 | ACAGAGAGGCTTCTGGCCAGGCAGAGCAGG | -1.16
39 | AAAGGCCTTTGAAGCTTGAAGGAGTATATG | 1.06
40 | GCTGCGGATCAAAGGAGCTGGGCCTGTGCT | -1.15
